PubChem BioAssay AID1240 (Sanford-Burnham Center for Chemical Genomics, 2008)
About 800 (1.6%) of roughly 50,000 compounds showed an effect of 50% or more. This is one part of the list.

The compounds below were run against Bcl-2-like protein 10 (Homo sapiens) (UniProt Q9HD36) (assay: Phenotype converters, Bcl-B/TR3 peptide binding displacement, primary biochemical FP (AID 1240;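 also: 0% = Bcl-B with tracer peptide and DMSO and 100% = tracer peptide lacking Bcl-B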)). Conditions: GST-Bcl-B / FITC-TR3 peptide fluorescence polarization; stronger effect = higher value; compound at 3.75 mg/L.
Chain of UniProt Q9HD36 (Q9HD36 whole entry, looked up): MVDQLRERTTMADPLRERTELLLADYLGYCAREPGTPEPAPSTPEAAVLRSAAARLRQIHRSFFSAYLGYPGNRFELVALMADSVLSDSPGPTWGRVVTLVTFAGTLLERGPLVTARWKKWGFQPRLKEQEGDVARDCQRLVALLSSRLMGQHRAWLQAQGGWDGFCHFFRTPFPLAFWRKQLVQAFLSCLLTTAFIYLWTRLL

| Compound | displacement [%] |
| --- | --- |
| COc1cc(C(=O)N/C(=C/c2ccc(Br)cc2)C(=O)NC(C(=O)O)C(C)C)cc(OC)c1OC (centres undefined) | 0 |
| CC(C(=O)NCc1ccccc1)N1C(=O)c2ccccc2C1=O (centres undefined) | -10.1 |
| COc1ccc(/C=C/C(=O)Nc2ccc([N+](=O)[O-])cc2OC)cc1Br | 15.6 |
| CCCCOc1cccc(NC(=O)c2cccc([N+](=O)[O-])c2C)c1 | 5 |
| COc1ccc2c(c1)/C(=N\OC(=O)c1ccc(OC)c([N+](=O)[O-])c1)CCC2 | -5.3 |
| COCCCNC(=O)C(=O)Nc1ccccc1C | 1.2 |
| C=CCOc1ccc(/C=C2/C(=O)NC(=O)N(c3cccc(C)c3)C2=O)cc1OCC | 126 |
| COc1ccc(-c2cc(C(=O)Nc3ccc(C)c(C)c3)c3ccccc3n2)cc1 | 4.8 |
| CCOC(=O)c1c(NC(=O)/C=C/c2ccc(OC)c(OC)c2)sc2c1CC(C)(C)OC2 | 12.4 |
| Cc1ccc(C(=O)NCC(=O)c2ccc(Br)cc2)cc1 | 4.5 |
| COc1ccc(C(=O)Nc2sc3c(c2C(N)=O)CCCC3)cc1 | 16.7 |
| Cc1cc(NC(=O)c2ccc(Cl)cc2Cl)no1 | -2.3 |
| Cc1ccc(OCC(=O)Nc2sc3c(c2C(N)=O)CCC(C)C3)c(C)c1 (centres undefined) | 10.8 |
| CCOc1cc(/C=C2\SC(=S)N(NC(=O)c3ccc([N+](=O)[O-])cc3)C2=O)ccc1O | 11.1 |
| Cc1cc(C)c2nc(Nc3ncc(O)[nH]3)nc(C)c2c1 | -12.7 |
| Cn1c(=O)c(C2=NS(=O)(=O)c3ccccc3N2)c(O)c2ccccc21 | 2.1 |
| OCCNCCCCOc1ccccc1Cl | 8.5 |
| O=C(Nc1ccc2c(c1)oc1ccccc12)c1ccco1 | 7.9 |
| CC(C(=O)O)n1nnc(-c2ccccc2)n1 (centres undefined) | 2.5 |
| CCOC(=O)c1sc(NC(=O)c2ccc(Cl)cc2[N+](=O)[O-])nc1C | -5.1 |
| Cc1c(C(c2cc([N+](=O)[O-])cc([N+](=O)[O-])c2O)c2c(C)n(C)n(-c3ccccc3)c2=O)c(=O)n(-c2ccccc2)n1C | -5.3 |
| c1ccc(-c2nc3ccccc3nc2-c2cccs2)cc1 | 13.4 |

| Compound | displacement [%] |
| --- | --- |
| CCC1CCCCN1C(=O)Cn1nc([N+](=O)[O-])c(Cl)c1C (centres undefined) | -10 |
| CCCN(CCC)C(=O)c1ccc(C(=O)c2cc(OC)ccc2OC)cc1 | -18.5 |
| CCOC(=O)c1c(C)[nH]c(C=Nc2ccccc2)c1O | 4.5 |
| COC(=O)c1ccccc1NC(=O)Cc1ccc(OC)c(OC)c1 | 26.1 |
| O=C1/C(=C\c2cc(Cl)ccc2O)SC(=S)N1Cc1ccccc1 | -5.4 |
| CC/C(C)=N/Oc1nc(N)nc(N(C)C)n1 | -2.2 |
| COc1ccc(NC(=O)CCCOc2ccccc2)c([N+](=O)[O-])c1 | -5 |
| COc1ccc(O)c(CN2CCN(Cc3cccc([N+](=O)[O-])c3)CC2)c1 | 13.7 |
| COc1cccc(OCCNc2cc(N3CCCC3)ccc2[N+](=O)[O-])c1 | 0.6 |
| Cc1ccccc1/C=N/N1CCN(c2ccccc2)CC1 | -8.7 |
| O=C(O)CCCN1C(=O)C(=O)/C(=C(/O)c2ccccc2)C1c1ccc(F)cc1 (centres undefined) | 1.1 |
| Nc1cccc(-n2nncc2-c2ccccc2)c1 | 8.5 |
| CCOC(=O)C1=C(C)NC(=O)CC1c1ccccc1F (centres undefined) | 0.1 |
| O=C(Nc1c(Cl)cccc1Cl)c1ccccc1[N+](=O)[O-] | 1.8 |
| COc1cc(OC)c(OC)cc1CN1CCN(C2CCCCC2OC)CC1 (centres undefined) | -10.6 |
| CCCCOc1ccccc1NC(=O)C(c1ccccc1)c1ccccc1 | -16.9 |
| O=C(COc1ccc2ccccc2c1)Nc1cccc(I)c1 | -8.2 |
| CCOC(=O)C(CCOCCOc1ccc(Cl)cc1C)C(=O)OCC | 11.2 |
| O=C(Cc1nnn(-c2ccccc2)n1)c1cccc([N+](=O)[O-])c1 | 3.1 |
| C/C(=N/Nc1ccc([N+](=O)[O-])cc1)c1ccc2c(c1)C1C=CCC1C(c1cccc([N+](=O)[O-])c1)N2 (centres undefined) | -14.4 |
| O=c1c2ccccc2nc(/C=C/c2cccc([N+](=O)[O-])c2)n1-c1cccc2ccccc12 | 5 |
| Cc1ccc(NC(=O)c2ccc([N+](=O)[O-])cc2)c(C(=O)c2ccccc2)c1 | 11.7 |

| Compound | displacement [%] |
| --- | --- |
| CCN1C(=O)/C(=C/c2ccc(NC(=O)c3ccc4ncccc4c3)cc2)SC1=S | 37.7 |
| O=[N+]([O-])c1ccc(C2Nc3c(cccc3C(F)(F)F)C3C=CCC32)cc1 (centres undefined) | 16.8 |
| COc1ccc(C(N)=O)cc1S(=O)(=O)N1CCOCC1 | 7.5 |
| CCOC(=O)c1c(CC(C)C)csc1NC(=O)C1CC1 | -0.3 |
| COc1cc(NC(=O)c2cccc([N+](=O)[O-])c2)cc(OC)c1 | 1.1 |
| O=C1NN(c2ccccc2)C(=O)/C1=C/c1ccccc1OCc1ccc(F)cc1 | 8.2 |
| CCSc1nc2ccccc2n1CC(=O)Nc1ccc(F)cc1 | 12.5 |
| O=C(COc1ccc2ccc(=O)oc2c1)Nc1cccc2ccccc12 | 10.7 |
| Cc1ccc(C(=O)Nc2ccccc2C(=O)NCCCC(=O)O)cc1 | -2.3 |
| CCc1ccc(N2CC(C(=O)N/N=C/c3cccc([N+](=O)[O-])c3)CC2=O)cc1 (centres undefined) | 2.1 |
| Cc1cc(C)cc(-n2c(C)cc(/C=C3\NC(=S)NC3=O)c2C)c1 | 12.1 |
| COC(=O)COc1ccc(/C=C(/C#N)C(=O)Nc2cccc(Br)c2)cc1OC | -8.7 |
| Cc1cccc(NC(=O)CCC(=O)NCCO)c1 | -3.7 |
| O=C(Cc1cccs1)NNC(=O)c1cccc(Cl)c1 | -0.3 |
| COc1cccc(OC)c1C(=O)Nc1ccccc1NC(C)=O | 3.8 |
| CC(C)(C)c1ccc(OCCOc2ccccc2C=C2C(=O)NC(=S)NC2=O)cc1 | -5.2 |
| O=C(Nc1ccc(S(=O)(=O)Nc2ncccn2)cc1)c1ccccc1Br | -14.8 |
| Cc1nnc(N2C(=O)C3CCC(C)(C2=O)C3(C)C)s1 (centres undefined) | -11.7 |
| O=C(C1=C(O)C(=O)N(c2nncs2)C1c1ccccc1F)c1cccs1 (centres undefined) | 129 |
| COc1ccc(C(=O)NNC(=O)c2ccccc2O)cc1 | -9.6 |
| CC(=O)Oc1ccc(-c2cccc(C(=O)Nc3ccccc3Cl)c2)cc1 | 12.6 |
| COc1ccc(-c2cc(C(F)(F)F)n3nc(C(=O)NCc4ccco4)c(Cl)c3n2)cc1OC | -5.3 |

| Compound | displacement [%] |
| --- | --- |
| CC(C)C(NC(=O)c1ccc(N(C)S(=O)(=O)c2ccccc2)cc1)C(C)C | 11.6 |
| C=CCOc1ccc(CN2CCCCC2)cc1 | -4 |
| COC(=O)c1cc(C(=O)NCCCN(C)C)cc([N+](=O)[O-])c1 | -4.2 |
| FC(F)(F)c1cc(/C=C/c2ccccc2)no1 | 7.7 |
| COc1ccc2c(c1OC)C(=O)OC2Nc1ccccc1[N+](=O)[O-] (centres undefined) | 7.8 |
| O=C(c1ccc([N+](=O)[O-])cc1Cl)N(Cc1ccccc1)c1ccccn1 | 16.8 |
| COc1ccc(C(=O)c2coc3cc(Br)c(O)c(Br)c23)cc1 | -13 |
| Cc1ccc(NC(=O)CCC(=O)N2CC(=O)NC(=O)C2)cc1 | 0.1 |
| Cc1cccc(C(=O)NN=C2CCN(C)CC2)c1 | -5.4 |
| CC1CCC2(CC1)OCC1(CCC3(COC4(CCC(C)CC4)OC3)C1=O)CO2 (centres undefined) | 1.5 |
| CC(=O)N1c2ccccc2N(Cc2ccc(C)cc2C)C(=O)C1(C)C | 10 |
| COc1ccc(Cl)cc1C(=O)Nc1ccc(O)c(-c2nc3ccccc3o2)c1 | -22.2 |
| Cc1ccc2c(Cl)c(C(=O)Nc3ccc4c(c3)OCCO4)sc2c1 | 12.3 |
| O=C(NCC1CCCO1)C(=O)Nc1ccc(Cl)c(C(F)(F)F)c1 (centres undefined) | -6.4 |
| Cc1ccc(C(=O)Nc2ncccc2Cl)cc1C | -10.2 |
| CCc1ccc(N2NC(=O)/C(=C/c3ccc(-c4ccc(S(N)(=O)=O)cc4)o3)C2=O)cc1 | 3.4 |
| COc1ccc(NC(=O)c2ccc(OC(C)=O)cc2)cc1O | 13.6 |
| O=C(CN(Cc1ccccc1)S(=O)(=O)c1ccccc1)Nc1ccc(Br)cc1 | 5.7 |
| Cc1ccc(C(=O)NCCCNc2ccc([N+](=O)[O-])cc2Cl)cc1 | 15.2 |
| COc1ccc(C2/C(=C(\O)c3ccccc3)C(=O)C(=O)N2CCN(C)C)cc1OC (centres undefined) | -14.8 |
| O=C1OC(c2ccccc2)=N/C1=C\c1c(Cl)cccc1Cl | 8.2 |
| COc1cc(CN2CCN(S(=O)(=O)c3ccc(Cl)cc3)CC2)cc(OC)c1O | -9.1 |

| Compound | displacement [%] |
| --- | --- |
| O=S(=O)(N=Nc1c(O)[nH]c2ccc(Br)cc12)c1ccc(Cl)cc1 | 4 |
| C/C(=C\c1ccc(Cl)cc1)C(=O)c1c(C)cc(C)[nH]c1=O | -1.3 |
| CC(NS(=O)(=O)c1ccccc1)C1COc2ccccc2O1 (centres undefined) | -9.1 |
| Cc1ccc(OCC(=O)Nc2ccc(C)cc2Br)c(C)c1 | 2.5 |
| CCN(CC)CCNC(=O)C12CC3CC(CC(C3)C1)C2 | -7.3 |
| O=C(CCN1C(=O)c2cccc([N+](=O)[O-])c2C1=O)Nc1nccs1 | -6.5 |
| Cc1cccc(C)c1NC(=O)CSCC(=O)Nc1ccccc1 | 9.9 |
| Cc1cccc(N2C(=O)NC(=O)/C(=C/c3cc4c(cc3Br)OCO4)C2=O)c1 | -0.9 |
| Cn1c(/C=C/c2cn(Cc3ccccc3)c3ccccc23)nc2ccccc2c1=O | 17.3 |
| COc1ccc(C(=O)Nc2cccc3ccccc23)cc1Br | 3.3 |
| COc1ccc2ccccc2c1/C=N/c1oc(C)c(C)c1C#N | 6.5 |
| COc1ccccc1Nc1nc(-c2ccc(C)cc2)cs1 | 9.4 |
| CCOC(=O)N1N=C(C)CC1(O)c1ccccc1 (centres undefined) | -0.7 |
| O=C(NCc1ccc2c(c1)OCO2)c1ccc(S(=O)(=O)N2CCCCCC2)cc1 | 0.1 |
| O=C(COc1ccc2ccccc2c1)Nc1cccc(Cl)c1Cl | -7.3 |
| COC(=O)c1c(-c2ccccc2Cl)csc1NC(=O)/C=C/C(=O)O | -12.6 |
| COc1ccc(N(CC(=O)Nc2ccc(Br)cc2)S(=O)(=O)c2ccc(OC)c(OC)c2)cc1 | 9.4 |
| O=C(CSC(=S)N1CCSCC1)c1ccc([N+](=O)[O-])cc1 | -9.3 |
| O=C(CC1c2ccccc2Oc2ccccc21)Nc1ccc(Cc2ccncc2)cc1 | -7.7 |
| CC1(C)CC(NC(=O)c2ccccc2Br)CC(C)(C)N1 | 2.2 |
| Cc1ccc(N(CC(=O)O)S(=O)(=O)c2ccccc2)cc1Cl | 15 |
